PMC10625615
These are yes or no findings as the source states them, for the method shown. In cells and extracts the contact can be indirect. Some binding calls cover weakened binding; strength is not graded here.

Chains of the proteins cited; added tags and fusions are not shown. Lines headed by an entry give the natural chain unless they say otherwise; changes in a name come on top. A line that says so, or that is headed by a name, gives the form on record, which may keep a tag or linker. Residues count along the entry.
UniProt A2A935: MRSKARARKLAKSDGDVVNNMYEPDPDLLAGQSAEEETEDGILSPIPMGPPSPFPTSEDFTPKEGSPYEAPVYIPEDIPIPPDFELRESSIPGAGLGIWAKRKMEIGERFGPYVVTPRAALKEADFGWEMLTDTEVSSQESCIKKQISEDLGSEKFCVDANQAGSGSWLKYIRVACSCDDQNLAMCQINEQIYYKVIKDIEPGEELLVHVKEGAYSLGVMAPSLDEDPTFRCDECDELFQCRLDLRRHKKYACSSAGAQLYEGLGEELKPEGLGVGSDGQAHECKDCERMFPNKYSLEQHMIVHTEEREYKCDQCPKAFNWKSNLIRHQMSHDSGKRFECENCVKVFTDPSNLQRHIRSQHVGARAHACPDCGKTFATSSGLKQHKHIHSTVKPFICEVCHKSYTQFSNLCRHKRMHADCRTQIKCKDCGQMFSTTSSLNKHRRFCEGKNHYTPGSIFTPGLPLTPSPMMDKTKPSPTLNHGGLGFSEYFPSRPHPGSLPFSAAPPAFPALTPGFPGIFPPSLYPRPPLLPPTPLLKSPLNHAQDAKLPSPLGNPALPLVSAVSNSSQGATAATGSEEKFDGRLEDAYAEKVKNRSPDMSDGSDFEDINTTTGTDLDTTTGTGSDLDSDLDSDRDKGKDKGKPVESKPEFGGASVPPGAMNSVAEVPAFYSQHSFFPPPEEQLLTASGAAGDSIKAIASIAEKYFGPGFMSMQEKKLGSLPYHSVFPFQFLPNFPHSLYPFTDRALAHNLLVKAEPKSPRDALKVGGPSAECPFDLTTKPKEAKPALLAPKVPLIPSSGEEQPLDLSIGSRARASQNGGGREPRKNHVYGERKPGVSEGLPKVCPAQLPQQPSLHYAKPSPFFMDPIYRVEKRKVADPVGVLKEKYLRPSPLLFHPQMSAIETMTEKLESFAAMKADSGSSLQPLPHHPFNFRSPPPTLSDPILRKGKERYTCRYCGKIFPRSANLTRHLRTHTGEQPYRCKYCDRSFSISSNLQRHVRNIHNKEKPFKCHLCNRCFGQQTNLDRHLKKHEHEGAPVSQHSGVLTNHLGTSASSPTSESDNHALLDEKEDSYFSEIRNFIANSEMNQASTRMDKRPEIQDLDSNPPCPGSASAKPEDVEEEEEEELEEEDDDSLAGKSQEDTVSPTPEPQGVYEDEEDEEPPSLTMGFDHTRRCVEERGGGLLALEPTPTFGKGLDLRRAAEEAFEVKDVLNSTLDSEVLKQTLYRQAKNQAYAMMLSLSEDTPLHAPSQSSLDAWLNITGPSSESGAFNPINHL
PRDM16 5th fragment (F5, amino acid 880-1038), zinc finger-2 domain: residues 880-1038 of A2A935
PRDM16(ΔF5) (A2A935, form named): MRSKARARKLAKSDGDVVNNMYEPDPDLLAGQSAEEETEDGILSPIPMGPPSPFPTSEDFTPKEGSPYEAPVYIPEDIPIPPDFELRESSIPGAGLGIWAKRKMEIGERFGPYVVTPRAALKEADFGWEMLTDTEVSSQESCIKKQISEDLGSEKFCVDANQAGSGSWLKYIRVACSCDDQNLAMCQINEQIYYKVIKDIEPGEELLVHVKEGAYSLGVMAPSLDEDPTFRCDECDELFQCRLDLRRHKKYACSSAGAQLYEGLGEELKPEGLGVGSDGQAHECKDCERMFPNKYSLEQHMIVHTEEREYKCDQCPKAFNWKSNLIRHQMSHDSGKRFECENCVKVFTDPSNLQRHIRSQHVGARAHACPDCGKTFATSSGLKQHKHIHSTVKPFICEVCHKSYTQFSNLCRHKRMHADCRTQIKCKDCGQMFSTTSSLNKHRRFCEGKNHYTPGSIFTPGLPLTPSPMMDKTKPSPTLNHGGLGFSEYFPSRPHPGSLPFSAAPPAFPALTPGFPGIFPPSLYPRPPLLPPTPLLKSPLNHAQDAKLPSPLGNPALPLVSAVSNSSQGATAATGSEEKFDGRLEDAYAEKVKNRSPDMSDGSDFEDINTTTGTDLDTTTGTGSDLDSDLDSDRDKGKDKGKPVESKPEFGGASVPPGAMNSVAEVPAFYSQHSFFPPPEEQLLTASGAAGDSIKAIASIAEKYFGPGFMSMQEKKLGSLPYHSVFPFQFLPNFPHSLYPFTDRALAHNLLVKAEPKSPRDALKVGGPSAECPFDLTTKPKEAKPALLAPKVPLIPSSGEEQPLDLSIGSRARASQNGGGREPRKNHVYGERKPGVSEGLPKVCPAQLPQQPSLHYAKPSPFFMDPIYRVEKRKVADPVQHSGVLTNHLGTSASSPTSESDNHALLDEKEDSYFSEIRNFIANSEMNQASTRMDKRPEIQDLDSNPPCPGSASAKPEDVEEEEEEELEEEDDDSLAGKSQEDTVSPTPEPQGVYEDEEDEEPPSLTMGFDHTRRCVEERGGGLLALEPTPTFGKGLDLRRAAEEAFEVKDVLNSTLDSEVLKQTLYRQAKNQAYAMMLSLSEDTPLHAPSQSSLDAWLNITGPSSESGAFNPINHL
UniProt Q9EPK5: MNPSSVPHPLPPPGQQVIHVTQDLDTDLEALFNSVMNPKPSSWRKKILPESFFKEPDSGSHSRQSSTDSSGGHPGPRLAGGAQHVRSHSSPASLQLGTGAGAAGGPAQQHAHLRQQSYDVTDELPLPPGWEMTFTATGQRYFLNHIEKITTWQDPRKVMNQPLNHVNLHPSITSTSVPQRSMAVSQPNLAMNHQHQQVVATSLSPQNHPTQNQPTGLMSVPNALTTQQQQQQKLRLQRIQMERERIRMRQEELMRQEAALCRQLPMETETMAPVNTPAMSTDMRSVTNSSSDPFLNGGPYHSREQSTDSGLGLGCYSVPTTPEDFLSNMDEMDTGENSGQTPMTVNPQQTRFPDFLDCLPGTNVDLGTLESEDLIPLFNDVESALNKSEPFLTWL
UniProt Q9GZV5: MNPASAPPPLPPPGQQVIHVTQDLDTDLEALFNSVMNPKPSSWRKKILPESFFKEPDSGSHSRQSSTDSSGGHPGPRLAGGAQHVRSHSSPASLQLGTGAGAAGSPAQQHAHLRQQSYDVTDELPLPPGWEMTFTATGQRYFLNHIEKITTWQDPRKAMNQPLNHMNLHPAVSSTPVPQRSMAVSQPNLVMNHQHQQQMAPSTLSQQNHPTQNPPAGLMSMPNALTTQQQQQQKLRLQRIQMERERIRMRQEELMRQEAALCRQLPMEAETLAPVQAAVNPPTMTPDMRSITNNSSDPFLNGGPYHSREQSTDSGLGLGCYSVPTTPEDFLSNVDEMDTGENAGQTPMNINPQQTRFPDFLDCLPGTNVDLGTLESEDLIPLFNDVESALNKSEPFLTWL
UniProt P46937: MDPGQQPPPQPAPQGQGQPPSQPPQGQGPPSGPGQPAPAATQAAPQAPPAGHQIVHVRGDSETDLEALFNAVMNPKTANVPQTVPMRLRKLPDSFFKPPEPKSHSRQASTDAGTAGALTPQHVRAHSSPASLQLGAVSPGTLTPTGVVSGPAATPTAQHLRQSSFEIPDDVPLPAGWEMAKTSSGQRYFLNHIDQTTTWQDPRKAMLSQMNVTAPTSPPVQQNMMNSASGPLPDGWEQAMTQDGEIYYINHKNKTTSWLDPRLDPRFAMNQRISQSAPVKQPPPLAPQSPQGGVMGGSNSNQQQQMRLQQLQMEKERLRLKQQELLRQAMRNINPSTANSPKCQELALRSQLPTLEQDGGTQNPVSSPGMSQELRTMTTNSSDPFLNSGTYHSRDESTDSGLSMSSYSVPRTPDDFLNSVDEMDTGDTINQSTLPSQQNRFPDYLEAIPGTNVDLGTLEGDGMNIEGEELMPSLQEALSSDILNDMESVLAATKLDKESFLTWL

Tests used:
[1] = biological target: PRDM16 (overexpressed in HEK-293T cells) (UniProt A2A935); experiment: co-IP; C/EBPβ and PRDM16 overexpressed in HEK-293T cells without or with co-expressed YAP, TAZ or their mutants (S79A, S51A, 5SA, 4SA); immunoblot
[2] = biological target: PRDM16 (overexpressed in HEK-293T cells) (UniProt A2A935); experiment: co-IP; overexpressed PRDM16 and endogenous YAP/TAZ in HEK-293T cells; immunoblot
[3] = biological target: PRDM16 (endogenous, mouse) (mouse (endogenous in SVF-derived beige adipocytes, scWAT, BAT)) (UniProt A2A935); experiment: co-IP; endogenous proteins in SVF-derived beige adipocytes; lysate with primary antibody overnight at 4 °C, Protein G beads 3 h at 4 °C; immunoblot; for PRDM16 with C/EBPβ cells treated with Veh, NE, FSK or NE + H89 for 30 min
PRDM16(ΔF5) = PRDM16(ΔF5) (UniProt A2A935); experiment: co-IP; both proteins overexpressed in HEK-293T cells; lysis buffer 120 mM NaCl, 50 mM Tris-HCl pH 8.0, 10% glycerol, 1% NP-40, 5 mM EDTA; HA-tagged protein on anti-HA magnetic beads, 2 h at 4 °C; immunoblot
[4] = biological target: PRDM16 5th fragment (F5, amino acid 880-1038), zinc finger-2 domain (UniProt A2A935); experiment: as above
[5] = biological target: PRDM16 (overexpressed in HEK-293T cells) (UniProt A2A935); experiment: as above

## TAZ (S51A) (from UniProt Q9EPK5 1-395)
[1]
  binding: binds

## TAZ (endogenous in HEK-293T cells) (from UniProt Q9GZV5 1-400)
[2]
  binding: binds

## TAZ (endogenous, mouse) (from UniProt Q9EPK5 1-395)
[3]
  binding: binds

## TAZ (overexpressed in HEK-293T cells) (from UniProt Q9EPK5 1-395)
PRDM16(ΔF5)
  binding: no binding
[4]
  binding: binds
[5]
  binding: binds

## YAP (S79A) (from UniProt P46938 1-488)
[1]
  binding: binds

## YAP (endogenous in HEK-293T cells) (from UniProt P46937 1-504)
[2]
  binding: binds

## YAP (endogenous, mouse) (from UniProt P46938 1-488)
[3]
  binding: binds

## YAP (overexpressed in HEK-293T cells) (from UniProt P46938 1-488)
PRDM16(ΔF5)
  binding: no binding
[4]
  binding: binds
[5]
  binding: binds
